From the supplement of paper PMC10126150
Values marked as one replicate rest on one cluster of the flow cell; about a third of the high ones do not repeat.

Test system: ATP
Assay: switch fluorescence ratio, 500 uM ATP over buffer (Cy3 cluster intensity, sum of 5 cycles each) (fold (ratio)); higher = stronger signal-on switching upon ATP binding; sequences stand for … in TCGTCGGCAGCGTCAGATGTGTATAAGAGACAGTTTTTTTTTTTTTTTTTTTTTTTTT…TC
Conditions: aptamer strand: ATP DNA aptamer (quencher-CACCTGGGGGAGTATTGCGGAGGAAGG + anchor), 100 nM annealed; ATP concentration: 500 uM; one replicate
Summary of the method: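 Imaging in selection buffer was followed by imaging after 15 min with 500 uM ATP at 22 °C, for Cy3-labelled switching-strand clusters annealed to 100 nM quencher-labelled ATP aptamer on a modified Illumina MiSeq flow-cell. Five of these buffer/ATP cycles ran, separated by NaOH stripping and re-annealing. The fluorescence ratio per cluster is summed target-cycle over summed buffer-cycle Cy3 intensity, averaged per switch-domain sequence; clusters outside 100-1000 RFU were removed.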
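Further: ATP exposure 15 min at 22 °C before imaging.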

Sequence | switch fluorescence ratio
TAATTAAAGA | 0.984
TTTACAAGGG | 0.984
ATTGCTGCTA | 0.957
CGGGATGTGG | 1.05
TTTTTCGGAC | 1
TGAGGCCGTT | 0.954
GCTCGAAAGC | 1.11
GAAACGGTCA | 1
AATGTATTTG | 1.02
TGAGACGTAT | 0.953
TGCCCGAGGC | 1.09
TTGGGAATAG | 1.03
GAAAACGAAA | 1.01
GAATGATCAA | 0.967
GATTGTAGTC | 0.994
TAGTAAATTT | 1.01
GTGGAATATC | 1.09
AAAGGAAA | 0.997
ATACAGAATA | 1.06
CCATGGGTTT | 1
CAATGGCTCC | 1.19
GCATAAAGAC | 1.11
TCATTGTAAT | 0.998

Sequence | switch fluorescence ratio
CATGCATACC | 1.24
CAACGTCAC | 1.92
CATCTGCGTC | 2.61
GGAAGTTGCG | 1
CTGACGAAC | 3.1
TTCGGTGGTC | 0.963
CGTACTCATT | 1.01
ATGTCGGTTC | 0.973
TATTGATAGT | 0.996
ATTCCAGCGC | 1.06
TGCGTACTAG | 1
TGGTTCCGAG | 1.07
GTAACCCCGA | 1.06
CTTGTTACAT | 0.94
GTTGAAATTT | 1.02
AGCCAATAGG | 0.994
GCTCCACATT | 2.05
GTAAATCTGG | 0.993
CGCGGGTTGT | 0.993
TTCCTGGG | 0.994
GGAGAACAGG | 1.05
CAGCTTTTA | 0.94
CGACCCTATT | 1.07

Sequence | switch fluorescence ratio
ACCCTTTGTA | 0.997
GAAGGTGCGT | 1.04
GTGTTGCCTG | 0.938
CGGGTCAGGG | 1
CCTATATATT | 1.05
CATAAATTAC | 1.24
CCGCAAATCG | 4.03
ATTTGATGCA | 1.01
TGTCAGATGG | 0.965
ATGTGGCACC | 1.04
ATAACGGATT | 0.96
ATCTACGCAT | 5.51
GTTTTGATAG | 0.973
TTGACCTTCC | 2.55
TTCATCGTTG | 1.01
ATCGGGCAGC | 0.979
GAGATGTCTG | 0.985
GACGCCTAGG | 1.05
AATTTGCTAT | 1.01
CGTTATACGC | 1.09
GAGCGCTAGA | 1.04
CAAGGTAGGC | 0.974
AGATGTAATT | 1.01

Sequence | switch fluorescence ratio
AGTGTACCAG | 1.02
GTGTGTGCGT | 0.992
ATCGAAGTCT | 0.97
GTGTCACATG | 1.02
AGCCACCCTT | 0.995
ACGGTGACAA | 1.11
CGGAGAGTGC | 1.12
GGTTGTGCGT | 1.01
GACCTCTGGA | 1.03
ACCGATGCTC | 2.23
TAATGTACTA | 1.07
AAAAGCACCG | 1.2
TGAATTATAC | 0.995
ATCCTTTGTT | 0.954
TGGGGAATGA | 0.962
TGTATTGTGA | 0.996
AGACGTTTCC | 1.16
TCGATAGATT | 0.998
CCCAAGAGTG | 2.17
CATCATTTTG | 1.03
ACTTCCCGAA | 1.22
CGTGGGCCGG | 0.99
ACAGAGCCTA | 0.975

Sequence | switch fluorescence ratio
CGGGCCGGAT | 0.973
GGTGACAATG | 1.02
TGCCGGTCAC | 1.09
ACCACAGGCA | 1.05
AGGGCCGGG | 1.17
ACTTGCCATG | 1.03
GGAAAATAT | 0.983
CGTTTAGGTC | 1.02
AATCCGTTAG | 1.05
ACAGCGATCA | 1.07
GGATCTGTTA | 0.962
GCAACTTACG | 1.39
TTCTGATGGG | 1.01
CCGAGGCCGG | 1.13
AGCCGCGGAG | 1.01
CGGAGAATGC | 1.82
TTTCGGCTCG | 1.01
ACATGATAAG | 1.02
ATCTTAGAGT | 1.01
GGGTGTTGCC | 1.03
GGTGGATACG | 1.05
TGGTCTTGGT | 0.98
GAGCGAGGTC | 0.989

Sequence | switch fluorescence ratio
ATTGCCTTCC | 1.07
CATCGATGGA | 0.988
AATTGAGCCA | 0.988
GTTGGAC | 1.02
GAACCGGCA | 1.1
CACTAATGGA | 1
GGCGCGGGCA | 0.996
ACGATTCGCC | 1.06
ACTGACAGTC | 1.19
GGTAGTTCGT | 0.987
TATCGGGCAC | 0.973
CATATGCTAC | 4.01
GGAAGCGTGT | 0.96
CGGTTCTGAA | 0.951
GCGGCCGTAA | 0.999
ACCAGAGCCG | 1.31
ACGGCATAGG | 1.07
CGCTAGATTA | 1.01
GCGTTATGCC | 1
TATGTCTGCT | 0.995
ATTAATGCAA | 1.07
AAAAAGGGAT | 1
TCGCGTAATG | 0.943

Sequence | switch fluorescence ratio
AGCAAATCAG | 0.972
TCATTGAAGA | 0.98
TAGGAGTGAT | 0.99
ATGTGGTTCT | 0.994
GGCCCAGCGG | 1.04
CCACTGGGTC | 1.04
AGGGCTAGAG | 0.985
GAGAAGAGAG | 0.959
CCGCTTAGAG | 3.57
GGGCAAGCCC | 1.03
ATCGGCTTCC | 1.75
GACTGAGTTT | 0.984
TTTTAAGCG | 1
TAAATTACGG | 1.14
TAAAAACATG | 1.07
CTTATGTACG | 1
TTGCGCGCTG | 0.989
AGAACTCTCA | 0.991
GTGCGGGATG | 1
